Reference: PubChem BioAssay (NCATS)
Inconclusive results, whose numbers are uncertain, are shown with a selection of clear calls. Entries that show only a call come without a potency. For part of these data: A potency beside an inconclusive call is a rough fit, not a confirmed value. The source made the active and inactive calls. Unless noted, the call rests on the fitted dose curve; in most records, active means well fitted curve in the direction sought with a large enough effect; inconclusive means small, poorly fitted or top-dose-only effect, or another doubt; inactive means no such curve, though single readings can be large; an effect the other way counts as inactive or inconclusive.

Experiments:
[1] = target: Retinoic acid receptor RXR-alpha (Homo sapiens) (UniProt P19793); experiment: qHTS assay for small molecule agonists of retinoid X receptor alpha signaling (AID 588544; calls by dose curve); details: HEK293T RXRa-UAS-bla, beta-lactamase reporter, 18 h; activation: at 76.7 µM (top of the series)
[2] = target: Voltage-gated inwardly rectifying potassium channel KCNH2 (Homo sapiens) (UniProt Q12809); experiment: qHTS Assay for Small Molecule Inhibitors of the Human hERG Channel Activity (AID 588834);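 further: lower thallium flux fluorescence means stronger hERG block; nearly all actives have a fitted effect of over 50% in size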; further: potency means the concentration at half of the fitted maximal effect; on activity change, negative = inhibition: top concentration of the series differs between compounds
Procedure, shortened: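 In hERG-transduced U2OS cells, dye-loaded for 1 hr at room temperature in dark, test compounds incubated 10 min at 37 °C before thallium stimulation. AC50 values derived by Hill modelling of concentration-response.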

[3] = qHTS assay for small molecule agonists of the antioxidant response element (ARE) signaling pathway (AID 651741; active means well fitted activation curve with a large enough effect in the signal ratio; inconclusive means small, poorly fitted or top-dose-only effect, or effect the other way, or a change in a side signal; the % refers to the signal ratio; further: potency means the concentration at half of the fitted maximal effect); details: HepG2 ARE-bla reporter, beta-lactamase FRET ratio, 16 h; activation: at 96 µM (top of the series)
Procedure, shortened: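 Reporter: beta-lactamase under ARE, stably in HepG2. Exposure: 16 h, 37 C, compounds delivered in DMSO by pin tool after 5 h cell preincubation. Readout: FRET substrate fluorescence after 2 h at RT.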

[4] = target: Single-stranded DNA cytosine deaminase (Homo sapiens) (UniProt Q9GZX7); experiment: Validation qHTS assay for inhibitors of Activation Induced Cytidine Deaminase (AID): AID signal (AID 1347429); further: potency means the concentration at half of the fitted maximal effect
Procedure, shortened: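 Compounds (final up to 114 uM) preincubated with AID plus UDG; 250 nM DJC20/DJC23 substrate mix (4x stock) added, 4 hr at room temperature, then NaOH, 30 min. Read 1 fluorescence at 540 nm excitation, 590 nm emission.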

[5] = target: Rap guanine nucleotide exchange factor 3 (Homo sapiens) (UniProt O95398); experiment: Confirmatory qHTS for antagonist of cAMP-regulated guanine nucleotide exchange factor 3 (EPAC1) (AID 1645880); further: nearly all actives have a fitted effect of over 55% in size
Procedure, shortened: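 Released BODIPY-GDP fluoresces less than Rap1-bound BODIPY-GDP; the signal is followed at 480/540 nm at 5-min intervals over 30 min, after 5 min at room temperature. Reactions contain 100 nM EPAC1, 250 nM RAP1B-BODIPY-GDP and 50 uM GDP; results are normalized to ATA and DMSO.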

[6] = NS1 protein of Zika virus - qHTS assay to identify small molecule inhibitors in human HEK 293 cells (AID 1347053); further: nearly all actives have a fitted effect of over 55% in size; further: potency means the concentration at half of the fitted maximal effect
Procedure, shortened: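 Compound-treated (1 h pre-infection) HEK 293 cells infected with ZIKV MR766, MOI = 0.5; after 24 h at 37 C, NS1 read by TR-FRET; data normalized to uninfected and infected controls.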

CP335 = experiment: qHTS profiling for inhibitors of Plasmodium falciparum proliferation (AID 504749); further: nearly all actives have a fitted effect of over 60% in size; further: potency means the concentration at half of the fitted maximal effect; details: P. falciparum in erythrocytes, SYBR Green DNA, 72 h; series mostly up to 28.7 µM
Procedure, shortened: (§1)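 Quantitative HTS: compounds pinned into medium, infected erythrocytes added (0.3% parasitemia, 2.5% hematocrit), 72 h culture at 37 C under 5% CO2. Saponin/Triton lysis with SYBR Green I, overnight RT, then fluorescence read.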

W2 = experiment: as above; details: P. falciparum in erythrocytes, SYBR Green DNA, 72 h; activity, negative = inhibition: at 28.7 µM (top of the series)
Procedure, shortened: as §1

[7] = Counterscreen for APE1 Inhibitors: Fluorescent Dye Displacement Validation Assay (AID 1707); further: potency means the concentration at half of the fitted maximal effect
Procedure, shortened: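 Loss of Thiazole Orange fluorescence marks promiscuous DNA binders. The dye (250 nM) is mixed with 50 nM abasic-site dsDNA in pH7.5 Tris buffer containing MgCl2, then compounds are added and emission is read once.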

[8] = target: Hexokinase-4 (Homo sapiens) + Glucokinase regulatory protein (Homo sapiens) (UniProt P35557+Q14397); experiment: qHTS assay for inhibitors of recombinant human GCK-GKRP interaction: HTRF assay (AID 743207); details: recombinant GCK-GKRP HTRF binding, 60 min; Potency: with sorbitol-6-phosphate unless noted; activity change, negative = inhibition: at 57.5 µM (top of the series), with sorbitol-6-phosphate unless noted; further: potency means the concentration at half of the fitted maximal effect
Procedure, shortened: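 GST-GCK and FLAG-GKRP (5 nM each) were combined with 2 uM S6P in pH 7.1 Hepes/MgCl2/KCl/DTT buffer, then compound and anti-FLAG XL665/anti-GST K antibodies were added. After 60 min at room temperature, HTRF 665/615 nm emission was read.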

[9] = target: Cytochrome P450 2C19 (Homo sapiens) (UniProt P33261); experiment: qHTS Assay for Inhibitors and Substrates of Cytochrome P450 2C19 (AID 899); details: recombinant CYP2C19, luciferin-H EGE luminescence; activity, negative = inhibition: at 57.1 µM (top of the series); further: top concentration of the series differs between compounds; nearly all actives have a fitted effect of over 60% in size
Procedure, shortened: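 Human CYP2C19 (5nM) with Luciferin-H EGE at 10uM (its KM) in 50mM KPO4 was preincubated with compound for 10 min at 37C. NADPH regeneration started a 60 min 37C reaction. Luciferin was read by luminescence, normalized to 57uM ketoconazole.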

[10] = target: Cytochrome P450 2C9 (Homo sapiens) (UniProt P11712); experiment: qHTS Assay for Inhibitors and Substrates of Cytochrome P450 2C9 (AID 883); further: potency means the concentration at half of the fitted maximal effect; nearly all actives have a fitted effect of over 60% in size
Procedure, shortened: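 Human CYP2C9 (10nM) hydroxylated Luciferin-H (100uM, at its KM) to luciferin in 25mM KPO4. Compound was preincubated 10 min at 37C, then NADPH regeneration started a 60 min reaction at 37C. Luminescence was read after detection reagent, normalized to 57uM sulphaphenazole.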

[11] = target: Ubiquitin carboxyl-terminal hydrolase 2 (Homo sapiens) (UniProt O75604); experiment: qHTS Validation Assay for Inhibitors of Ubiquitin-specific Protease USP2a Using CHOP2 as the Reporter (AID 463106)
Procedure, shortened: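 Inhibition is expressed relative to NEM as the full-inhibition control, with concentration-response curves classed by fit quality, magnitude and activity. Enzyme (USP2 core, 10nM) meets 25nM Ub-CHOP2 after compound preincubation; readings are taken at 60min.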

[12] = HTS Assay for Allosteric Antagonists of the Human D2 Dopamine Receptor: Hit Validation in HTRF (AID 624455); details: Cells stably expressing D1 dopamine receptor, inhibition mode;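 further: stable D1 dopamine receptor cell line scored for blocking the D1 response; potency means the concentration at half of the fitted maximal effect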
Procedure, shortened: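 Inhibition of the D1-mediated response was measured by HTRF. Cells used were a line stably expressing the D1 dopamine receptor.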

[13] = target: Pyruvate kinase (Leishmania mexicana) (UniProt Q27686); experiment: qHTS Validation Assay for Inhibitors of Leishmania Mexicana Pyruvate Kinase (AID 945)
Procedure, shortened: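 Luminescent ATP detection (PKLight) after a 1 h room-temperature reaction of 0.2 nM LmPYK E451W mutant with 0.5 mM PEP and 0.1 mM ADP at pH 7.2. Activity is normalized to DMSO-only control wells.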

[14] = target: Cytochrome P450 3A4 (Homo sapiens) (UniProt P08684); experiment: qHTS Assay for Inhibitors and Substrates of Cytochrome P450 3A4 (AID 884); details: recombinant CYP3A4, Luciferin-PPXE luminescence; activity change, negative = inhibition: at 57.1 µM (top of the series); further: nearly all actives have a fitted effect of over 50% in size
Procedure, shortened: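 Luminescent readout of luciferin produced by CYP3A4 (20 nM) dealkylation of Luciferin-PPXE, 25 uM (its KM). NADPH-driven reaction ran 60 min at RT after 10 min compound preincubation; data scaled to 57 uM ketoconazole as 100% inhibition.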

[15] = qHTS assay to identify small molecules that stimulate interleukin-8 (IL-8) secretion (AID 651758; active means well fitted activation curve with a large enough effect in the signal ratio; inconclusive means small, poorly fitted or top-dose-only effect, or effect the other way, or a change in a side signal; the % refers to the signal ratio); details: HTRF ratio (665/615); activation: at 92.2 µM (top of the series)
Procedure, shortened: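 Quantitative HTS in THP-1 monocytic cells at 2000 cells per well, with 16 hrs compound incubation at 37 C. IL-8 in the medium was then quantified by HTRF immunoassay, read after 1-3 hrs at room temperature.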

[16] = target: Cytochrome P450 2D6 (Homo sapiens) (UniProt P10635); experiment: qHTS Assay for Inhibitors and Substrates of Cytochrome P450 2D6 (AID 891);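 further: luciferin methyl ether substrate demethylated by CYP2D6 with NADPH regeneration; top concentration of the series differs between compounds; nearly all actives have a fitted effect of over 60% in size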
Procedure, shortened: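 Luminescent read-out of luciferin formed by 5 nM human CYP2D6 demethylating 30 uM Luciferin-ME EGE (Km level) over 60 min at room temperature after NADPH regeneration addition. Data normalized to full inhibition by 1.43 uM quinidine.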
Tags describe the fitted curve by direction and shape.

Sequence of UniProt P35557 (P35557 whole entry, looked up): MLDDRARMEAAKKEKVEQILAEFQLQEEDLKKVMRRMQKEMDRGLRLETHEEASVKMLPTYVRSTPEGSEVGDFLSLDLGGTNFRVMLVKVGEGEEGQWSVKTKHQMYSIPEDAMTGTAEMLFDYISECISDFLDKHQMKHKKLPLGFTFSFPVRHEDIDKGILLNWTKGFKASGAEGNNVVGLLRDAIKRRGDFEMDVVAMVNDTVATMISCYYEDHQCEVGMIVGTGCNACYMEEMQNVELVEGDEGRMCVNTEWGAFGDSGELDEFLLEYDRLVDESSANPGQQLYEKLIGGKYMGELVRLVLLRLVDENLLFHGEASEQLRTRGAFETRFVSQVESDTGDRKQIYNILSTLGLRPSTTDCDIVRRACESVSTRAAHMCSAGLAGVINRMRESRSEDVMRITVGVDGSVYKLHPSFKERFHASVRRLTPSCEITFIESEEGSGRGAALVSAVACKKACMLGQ
Sequence of UniProt P35557 (Q14397 whole entry, looked up): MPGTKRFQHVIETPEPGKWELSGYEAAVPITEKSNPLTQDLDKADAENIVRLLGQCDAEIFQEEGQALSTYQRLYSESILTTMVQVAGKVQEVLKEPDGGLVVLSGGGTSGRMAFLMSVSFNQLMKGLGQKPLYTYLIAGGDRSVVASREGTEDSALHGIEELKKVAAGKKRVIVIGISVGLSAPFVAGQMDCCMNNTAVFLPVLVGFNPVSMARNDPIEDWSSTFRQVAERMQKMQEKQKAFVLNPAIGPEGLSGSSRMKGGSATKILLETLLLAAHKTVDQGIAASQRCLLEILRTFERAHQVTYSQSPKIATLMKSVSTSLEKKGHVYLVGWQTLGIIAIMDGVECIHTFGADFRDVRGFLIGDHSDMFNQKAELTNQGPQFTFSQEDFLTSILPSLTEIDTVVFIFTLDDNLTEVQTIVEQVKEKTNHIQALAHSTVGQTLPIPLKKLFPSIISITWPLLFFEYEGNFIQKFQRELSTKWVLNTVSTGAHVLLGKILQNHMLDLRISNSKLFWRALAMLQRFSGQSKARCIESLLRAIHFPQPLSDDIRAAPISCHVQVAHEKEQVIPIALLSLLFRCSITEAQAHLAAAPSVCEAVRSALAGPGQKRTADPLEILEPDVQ
Sequence of UniProt P33261 (P33261 whole entry, looked up): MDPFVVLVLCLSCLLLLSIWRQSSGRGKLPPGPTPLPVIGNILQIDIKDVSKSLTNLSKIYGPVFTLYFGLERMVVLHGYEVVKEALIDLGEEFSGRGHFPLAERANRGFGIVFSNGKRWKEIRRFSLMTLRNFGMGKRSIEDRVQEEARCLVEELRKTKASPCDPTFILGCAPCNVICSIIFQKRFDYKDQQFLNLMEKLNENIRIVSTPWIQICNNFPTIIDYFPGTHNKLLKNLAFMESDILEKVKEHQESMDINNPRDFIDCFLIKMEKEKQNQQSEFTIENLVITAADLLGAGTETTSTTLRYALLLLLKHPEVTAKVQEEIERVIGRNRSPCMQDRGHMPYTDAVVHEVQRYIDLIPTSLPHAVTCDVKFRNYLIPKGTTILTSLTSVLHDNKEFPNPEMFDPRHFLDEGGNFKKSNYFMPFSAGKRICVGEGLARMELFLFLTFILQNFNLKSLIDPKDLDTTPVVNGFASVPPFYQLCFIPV
Sequence of UniProt Q9GZX7 (Q9GZX7 whole entry, looked up): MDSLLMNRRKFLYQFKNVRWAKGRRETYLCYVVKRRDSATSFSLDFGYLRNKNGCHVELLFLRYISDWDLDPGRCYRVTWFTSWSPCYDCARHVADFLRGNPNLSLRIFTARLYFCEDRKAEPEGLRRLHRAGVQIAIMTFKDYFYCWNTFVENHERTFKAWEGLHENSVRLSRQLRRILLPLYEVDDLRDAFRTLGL
Sequence of UniProt P10635 (P10635 whole entry, looked up): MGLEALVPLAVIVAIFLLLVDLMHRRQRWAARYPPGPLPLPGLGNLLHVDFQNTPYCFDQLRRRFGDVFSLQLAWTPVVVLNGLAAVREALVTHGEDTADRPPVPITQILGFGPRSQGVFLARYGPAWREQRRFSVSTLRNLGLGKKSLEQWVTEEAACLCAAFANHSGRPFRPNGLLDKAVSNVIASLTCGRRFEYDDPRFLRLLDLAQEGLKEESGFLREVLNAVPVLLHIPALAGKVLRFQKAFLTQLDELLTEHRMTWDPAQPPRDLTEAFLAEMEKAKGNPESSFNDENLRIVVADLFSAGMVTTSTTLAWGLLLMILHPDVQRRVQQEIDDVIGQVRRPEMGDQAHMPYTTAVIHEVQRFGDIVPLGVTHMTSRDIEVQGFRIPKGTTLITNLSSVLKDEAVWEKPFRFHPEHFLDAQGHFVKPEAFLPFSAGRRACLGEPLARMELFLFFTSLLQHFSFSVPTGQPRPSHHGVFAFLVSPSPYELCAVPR
Sequence of UniProt P19793 (P19793 whole entry, looked up): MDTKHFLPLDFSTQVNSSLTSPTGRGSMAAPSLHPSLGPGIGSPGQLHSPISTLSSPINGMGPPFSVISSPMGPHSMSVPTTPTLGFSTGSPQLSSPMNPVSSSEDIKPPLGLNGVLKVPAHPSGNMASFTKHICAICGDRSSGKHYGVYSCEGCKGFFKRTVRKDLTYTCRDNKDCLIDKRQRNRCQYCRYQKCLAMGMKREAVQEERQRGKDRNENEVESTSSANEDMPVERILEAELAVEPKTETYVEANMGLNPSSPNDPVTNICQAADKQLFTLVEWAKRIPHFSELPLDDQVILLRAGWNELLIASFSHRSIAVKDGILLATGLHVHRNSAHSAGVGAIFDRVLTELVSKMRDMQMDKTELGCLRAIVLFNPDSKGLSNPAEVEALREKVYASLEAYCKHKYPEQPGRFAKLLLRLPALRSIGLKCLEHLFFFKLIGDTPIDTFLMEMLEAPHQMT
Sequence of UniProt P11712 (P11712 whole entry, looked up): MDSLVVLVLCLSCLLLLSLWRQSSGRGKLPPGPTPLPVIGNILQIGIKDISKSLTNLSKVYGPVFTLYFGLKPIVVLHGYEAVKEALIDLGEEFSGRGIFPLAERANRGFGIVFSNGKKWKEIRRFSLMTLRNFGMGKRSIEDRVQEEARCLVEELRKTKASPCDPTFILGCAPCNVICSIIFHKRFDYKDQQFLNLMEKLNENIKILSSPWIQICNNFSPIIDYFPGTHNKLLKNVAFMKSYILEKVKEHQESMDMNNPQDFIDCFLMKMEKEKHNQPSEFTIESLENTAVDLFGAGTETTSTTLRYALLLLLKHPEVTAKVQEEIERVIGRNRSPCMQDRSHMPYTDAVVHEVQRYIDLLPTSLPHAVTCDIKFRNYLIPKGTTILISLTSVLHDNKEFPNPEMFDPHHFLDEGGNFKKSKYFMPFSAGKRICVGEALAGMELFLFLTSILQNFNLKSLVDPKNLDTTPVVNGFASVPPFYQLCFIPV
Sequence of UniProt Q12809 (Q12809 whole entry, looked up): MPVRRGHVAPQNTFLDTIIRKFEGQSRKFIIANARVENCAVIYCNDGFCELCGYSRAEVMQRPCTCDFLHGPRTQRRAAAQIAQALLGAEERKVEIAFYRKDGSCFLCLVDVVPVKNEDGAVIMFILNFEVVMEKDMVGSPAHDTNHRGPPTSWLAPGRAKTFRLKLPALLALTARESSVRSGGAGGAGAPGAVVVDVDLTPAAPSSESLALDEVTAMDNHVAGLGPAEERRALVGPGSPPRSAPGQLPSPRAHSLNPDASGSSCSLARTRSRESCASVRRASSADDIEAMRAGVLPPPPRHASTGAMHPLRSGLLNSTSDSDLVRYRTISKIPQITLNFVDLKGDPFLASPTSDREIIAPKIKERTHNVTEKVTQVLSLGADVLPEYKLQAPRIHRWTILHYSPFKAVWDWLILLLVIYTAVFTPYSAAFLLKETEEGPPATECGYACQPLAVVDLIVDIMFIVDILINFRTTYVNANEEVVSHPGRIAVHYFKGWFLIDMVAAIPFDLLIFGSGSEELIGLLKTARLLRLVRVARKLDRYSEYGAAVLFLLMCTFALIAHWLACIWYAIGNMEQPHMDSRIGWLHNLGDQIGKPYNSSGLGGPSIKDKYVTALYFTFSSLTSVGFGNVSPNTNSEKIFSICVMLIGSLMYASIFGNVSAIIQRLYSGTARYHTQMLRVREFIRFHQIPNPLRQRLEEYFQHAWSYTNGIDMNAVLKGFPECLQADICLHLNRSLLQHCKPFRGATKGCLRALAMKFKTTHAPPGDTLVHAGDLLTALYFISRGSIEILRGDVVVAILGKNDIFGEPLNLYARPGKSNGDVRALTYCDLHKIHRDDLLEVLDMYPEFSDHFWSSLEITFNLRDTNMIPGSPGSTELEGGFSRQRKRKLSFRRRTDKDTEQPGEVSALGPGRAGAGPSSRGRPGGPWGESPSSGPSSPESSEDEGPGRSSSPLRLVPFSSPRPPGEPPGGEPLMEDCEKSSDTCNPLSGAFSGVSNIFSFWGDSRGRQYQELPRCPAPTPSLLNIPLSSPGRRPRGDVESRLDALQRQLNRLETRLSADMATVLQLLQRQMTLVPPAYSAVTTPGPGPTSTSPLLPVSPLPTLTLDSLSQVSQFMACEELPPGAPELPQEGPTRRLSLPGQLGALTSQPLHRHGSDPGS
Sequence of UniProt Q27686 (Q27686 2-499 E452W): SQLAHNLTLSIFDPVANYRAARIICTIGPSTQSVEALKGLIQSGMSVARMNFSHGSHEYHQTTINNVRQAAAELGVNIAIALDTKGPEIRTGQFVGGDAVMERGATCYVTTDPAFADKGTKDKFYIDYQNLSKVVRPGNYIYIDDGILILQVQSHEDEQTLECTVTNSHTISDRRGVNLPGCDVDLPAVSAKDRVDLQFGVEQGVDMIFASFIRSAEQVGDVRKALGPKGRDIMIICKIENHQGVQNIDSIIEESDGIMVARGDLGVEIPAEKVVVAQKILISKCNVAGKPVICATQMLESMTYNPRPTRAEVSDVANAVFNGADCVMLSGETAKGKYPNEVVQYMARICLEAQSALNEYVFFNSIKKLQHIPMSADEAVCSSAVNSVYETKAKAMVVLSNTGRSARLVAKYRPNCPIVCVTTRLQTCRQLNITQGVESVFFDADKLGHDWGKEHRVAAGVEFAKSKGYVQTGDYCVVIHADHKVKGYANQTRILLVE

CCCCCCCCCCCCCCSCC(=O)O
activation [1]: inconclusive: 24.8% | Potency [2]: inactive | Potency [3]: inconclusive: 34.4 µM [inhibitor, partial curve, poor fit] | Potency [4]: inconclusive: 70.8 µM [inhibitor, partial curve]

COc1ccc(CCn2nnnc2C2(c3ccc(C)cc3)CC2)cc1
Potency [5]: inactive

c1ccc2c(c1)CCC[C@H]2Nc1nc2ccccc2[nH]1
Potency [6]: inactive

C[N+]1(CCCCC[N+]2(C)CCCC2)CCCC1
Potency (CP335): inactive | Potency (W2): inactive

c1ccc(CN2CCC3(CCCc4ccccc43)CC2)cc1
Potency [6]: inconclusive: 3.16 µM [inhibitor, single point]

CCCCCCCCCCCCCCCC(=O)NCC(COP(=O)([O-])OCC[N+](C)(C)C)OCC (stereo unspecified)
Potency [7]: inconclusive: 0.0447 µM [inhibitor, full curve]

CCN(CC)CCCCCCCCOC(=O)c1cc(OC)c(OC)c(OC)c1
Potency [2]: active: 11.2 µM

CC#CCOC(=O)c1c(C)nc2sc3c(c2c1N)CCC(O)C3 (stereo unspecified)
activity change, negative = inhibition [8]: inconclusive: -32.4% [inhibitor] [at 57.5 µM]

CCCn1c(=O)[nH]c(=O)c2[nH]cnc21
Potency [9]: inactive

N.N.O=C(O)C1(C(=O)O)CCC1.[Pt]
Potency [10]: active: 3.98 µM

OC1(c2ccc(Cl)cc2)CCN(Cc2c[nH]c3ccccc23)CC1
Potency [9]: inactive

CCCCC#Cc1nc(NC)c2ncn([C@@H]3O[C@H](CO)[C@@H](O)[C@H]3O)c2n1
Potency [11]: inactive

CN1Cc2sccc2C(c2ccc(O)c(O)c2)C1 (stereo unspecified)
Potency [12]: active: 0.0164 µM

CC(C)NC[C@H](O)COc1cccc2ccccc12
Potency [6]: inactive

N[C@@H](CS(=O)O)C(=O)O
Potency [13]: inactive | Potency [12]: inconclusive: 18.4 µM [inhibitor, partial curve, poor fit]

O=C(O)C1=CCNCC1
Potency [14]: inactive | Potency [8]: inconclusive: 31.6 µM [inhibitor, single point]

NOCC(=O)O
Potency [12]: inconclusive: 5.8 µM [inhibitor, single point]

CN(C)CCC(c1ccc(Cl)cc1)c1ccccn1 (stereo unspecified)
Potency [1]: inactive | activation [3]: inconclusive: 2.31% | activation [15]: inconclusive: -3.25%

CNCCC(Oc1ccccc1C)c1ccccc1 (stereo unspecified)
Potency [6]: inactive

COc1ccc2c(c1)c(CC(=O)O)c(C)n2C(=O)c1ccccc1
Potency [16]: inactive | Potency [6]: inactive

OC[C@H]1NC[C@@H](O)[C@@H]1O
Potency [4]: inactive

CCCOC(=O)c1c(-c2ccccc2)nc(CC)c(C(=O)SCC)c1CCC
Potency [10]: inconclusive: 7.94 µM [inhibitor, full curve, poor fit]

c1ccc(C2CN3CCSC3=N2)cc1 (stereo unspecified)
Potency (CP335): active: 5.36 µM | Potency (W2): active: 1.51 µM

CCc1c(C(=O)NCCc2ccc(N3CCCCC3)cc2)[nH]c2ccc(Cl)cc12
Potency [8]: inconclusive: 39.8 µM [inhibitor, single point]

Oc1cc(O)c2c(c1)O[C@H](c1ccc(O)c(O)c1)[C@@H](O)C2
Potency [16]: inactive | Potency [9]: inactive
